Source: patent US20120052007A1, “PERIPHERAL BLOOD SPARC BINDING ANTIBODIES AND USES THEREOF” (ABRAXIS BIOSCIENCE, LLC, priority 2010, published 2012)

Target: T1, SPARC (Homo sapiens, UniProt P09486)
T1 sequence (P09486 18-303): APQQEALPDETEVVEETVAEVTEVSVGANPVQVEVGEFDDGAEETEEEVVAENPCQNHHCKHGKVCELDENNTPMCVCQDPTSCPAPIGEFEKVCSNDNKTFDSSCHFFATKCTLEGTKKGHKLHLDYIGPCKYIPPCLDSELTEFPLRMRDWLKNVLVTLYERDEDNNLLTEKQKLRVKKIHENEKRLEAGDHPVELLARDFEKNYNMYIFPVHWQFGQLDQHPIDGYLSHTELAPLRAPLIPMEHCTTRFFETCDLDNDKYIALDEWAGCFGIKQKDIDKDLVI
Assay: ELISA verification of SPARC binding activity of Fab regions
Conditions: purified Fab
Description: A pASK84 expression vector (FIG. 1) was used to express the Fab regions of the resulting antibodies, designated Imm1 through Imm12. The Fab regions were targeted to the periplasm where they were collected and subsequently purified via activity chromatography on a protein A sepharose column. Identity was verified by Western blot and SPARC binding activity was verified by ELISA.
Imm13 and Imm14 are fully human anti-human SPARC antibodies which were generated using a human phage display library. SPARC was panned against the commercial human Fab phage display library HuFabL® (Creative Biolabs, Shirley, N.Y.). SPARC binding activity was verified by ELISA for these two Fab molecules.

B1: Fab6: human SPARC binding Fab from phage display library HuFabL, SEQ ID NO 15 (protein)
chain: QVQLVQSGGGLVQPGGSLRLSCAASGFTVSSNYMSWVRQAPGKGLEWVSVIYSGGSTYYADSVKGRFTISRDNSKNTLYLQMNSLRAEDTAVYYCARGIAAAGLDYWGQGTLVTVSPASTKGPSVFPLAPSSKSTSGGTAALGCLVKDYFPEPVTVSWNSGALTSGVHTFPAVLQSSGLYSLSSVVTVPSSSLGTQTYVCNVNHKPSNTKVDKKVEPKSCDKTSELVLTQPPSVSAAPGQKVTISCSGSSSNIGNNYVYWYQQLPGTAPKLLIYRNNQRPSGVPDRFSGSKSGTSASLAISGLRSEDEADYYCAAWDDSLSGWVFGGGTKLTVLGQPKAAPSVTLFPPSSEELQANKATLVCLISDFYPGAVTVAWKADGSPVKAGVETTTPSKQSNNKYAASSYLSLTPEQWKSHRSYSCQVTHEGSTVEKTVAPTECS
SPARC binding activity (ELISA): verified
